Measurements from PubChem BioAssay AID504832 (National Center for Advancing Translational Sciences (NCATS), 2011).
Screen size: about 310,000 compounds; about 18,000 (5.8%) were called active. The shares of active, inactive and inconclusive entries below differ from those in the screen. Calls follow the shape of the dose curve; as a rule, active = well fitted inhibition curve with a large enough effect; inconclusive = small, poorly fitted or top-dose-only effect, or another doubt; inactive = no such curve, though single readings can be large or run the other way. No potency is given beside an inconclusive call; the fits are too rough.

assay: Primary qHTS for delayed death inhibitors of the malarial parasite plastid, 48 hour incubation; conditions: P. falciparum luciferase growth in erythrocytes; series mostly up to 28.7 µM; activity change, negative = inhibition: at the top concentration
Summary of the method: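 Firefly luciferase activity from engineered P. falciparum reports growth; inhibitors lower the luminescent signal. Cultures contained 2% hematocrit erythrocytes at 0.1% final parasitemia.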
% is scaled to controls: 0 for no effect and ±100 for the full control effect; potency is read from the fitted curve at half-maximal effect; tags tell the direction and shape of the fitted curve.

Which Potency does the source give for `CC1CCCCC1NC(=S)Nc1cccc(S(=O)(=O)N(C)C)c1` (configuration not stated) here?
The Potency was inconclusive [inhibitor, single point].

With `CCN(CC)S(=O)(=O)c1ccc(=O)[nH]c1` as the compound, how does the “activity change, negative = inhibition” value read?
Its value is inactive: 16.9%.

For `CCOc1cc(NC(=S)NCC2CCCO2)c(OCC)cc1NC(=O)c1cccc(F)c1` (configuration not stated), which Potency is on record?
Its Potency is inconclusive [inhibitor, partial curve, poor fit].

For `N#Cc1ccc(NC(=S)NC(=O)CCc2ccc(S(=O)(=O)N3CCOCC3)cc2)cc1`, which activity change, negative = inhibition is on record?
The activity change, negative = inhibition was inactive: 15.5% [at 5.75 µM].

For `Cc1[nH]nc(-c2ccc(OCc3cnn(-c4ccccc4)c3)cc2O)c1Oc1ccc(F)cc1`, which Potency is on record?
Its Potency is inconclusive [inhibitor, single point].

Which “activity change, negative = inhibition” value does the source give for `O=Cc1c[nH]c2ccc(S(=O)(=O)N3CCOCC3)cc12` here?
Its value is inactive: 11.3%.

With `O=C(NC1CCN(C(=O)c2cccc([N+](=O)[O-])c2)CC1)c1ccccc1` as the compound, how does the “activity change, negative = inhibition” value read?
Its value is inactive: 20%.

Which “activity change, negative = inhibition” value does the source give for `C=CCc1c(Cl)nc(C)nc1NCc1ccccc1` here?
Its value is inactive: 6.39%.

For `COc1ccc(CN2CCCC(C(=O)c3ccccc3SC)C2)cc1O` (configuration not stated), which Potency is on record?
The Potency was inconclusive [inhibitor, single point].

With `CCCCCCn1c(=O)c(C(=O)Nc2nnc(C)s2)c(O)c2ccccc21` as the compound, how does the “activity change, negative = inhibition” value read?
Its value is inactive: 5.32%.

For `Cc1ccc(-c2nn3c(C)nnc3c3ccccc23)cc1S(=O)(=O)NCc1ccco1`, which Potency is on record?
Its Potency is inconclusive [inhibitor, single point].

With `Cc1cc(C)n(/C(=C/N(C)C)C(=O)c2ccccc2)n1` as the compound, how does the Potency read?
The Potency was inconclusive [inhibitor, single point].

For `CC1(C)Cc2cccc(OCC(O)CN3CCN(c4ccccn4)CC3)c2O1` (configuration not stated), which Potency is on record?
Its Potency is active: 11.7 µM.

With `COc1ccc(CCCC(=O)NCCc2ccccc2)cc1` as the compound, how does the “activity change, negative = inhibition” value read?
The value was inactive: 38.7%.

Which Potency does the source give for `COc1ccc(C2C(C#N)=C(N)N(N(C)C)C3=C2C(=O)CC(C)(C)C3)cc1OC` (configuration not stated) here?
The Potency was inconclusive [inhibitor, partial curve, poor fit].

Which “activity change, negative = inhibition” value does the source give for `Cc1ccc(C(CCN)c2ccco2)cc1` (configuration not stated) here?
Its value is inactive: -15.3%.

Which Potency does the source give for `c1ccc(COc2cccc(CNCc3cccnc3)c2)cc1` here?
Its Potency is inconclusive [inhibitor, partial curve].

For `CC(C)N=C(N)N=C(N)Nc1ccc(Cl)cc1`, which Potency is on record?
Its Potency is active: 1.17 µM.

For `Cc1csc(NC(=O)CSc2nc(=O)[nH]c3c2CCCC3)n1`, which “activity change, negative = inhibition” value is on record?
Its value is inactive: 2.03%.

For `CCOC(=O)c1oc2nc(CC(C)C)c3c(c2c1N)CCC3`, which Potency is on record?
Its Potency is inconclusive [inhibitor, partial curve].

Which Potency does the source give for `C=C(C)CNC(=S)N/N=C/c1ccco1` here?
Its Potency is inconclusive [inhibitor, single point].

For `COc1ccc(NS(=O)(=O)c2cc3c(cc2C)N(C(C)=O)CCO3)cc1`, which Potency is on record?
Its Potency is inconclusive [inhibitor, single point].

For `S=c1[nH]ccn1CCc1ccccc1`, which Potency is on record?
Its Potency is inconclusive [inhibitor, single point].

Which Potency does the source give for `COc1ccc(CN(C(=O)c2oc3ccccc3c2C)C2CCS(=O)(=O)C2)cc1` (configuration not stated) here?
Its Potency is inconclusive [inhibitor, partial curve, poor fit].

With `CC(Sc1nnnn1C1CC1)C(=O)Nc1cccc(S(=O)(=O)N2CCOCC2)c1` (configuration not stated) as the compound, how does the Potency read?
Its Potency is inconclusive [inhibitor, partial curve].

With `Cc1ccc(S(=O)(=O)N2CCC(C(=O)OCC(=O)N3CC(C)CC(C)C3)CC2)cc1C` (configuration not stated) as the compound, how does the Potency read?
The Potency was inconclusive [inhibitor, partial curve, poor fit].

For `O=C(N/N=C/C=C/c1ccccc1)c1cccs1`, which “activity change, negative = inhibition” value is on record?
The value was inactive: 55.8%.

Which Potency does the source give for `CCN1C(=O)[C@@H]2[C@@H](c3ccc(-c4ccc(OC)cc4)cc3)N3CCC[C@@]3(C(=O)OC)[C@@H]2C1=O` here?
The Potency was active: 9.28 µM.

With `CCN(CC)C(=O)CSc1nc2ccc(NC(=O)CSc3nccn3C)cc2s1` as the compound, how does the Potency read?
Its Potency is active: 8.28 µM.

For `COc1ccc(CNc2ccc3c(c2)ncn3-c2ccccc2OC)cc1`, which Potency is on record?
Its Potency is active: 14.7 µM.

For `COC(=O)c1sc2ncn(CC(=O)NCCc3ccc(OC)c(OC)c3)c(=O)c2c1C`, which “activity change, negative = inhibition” value is on record?
Its value is inactive: -2.16%.

With `CCOC(=O)c1cc(C)n(-c2ccc(Cl)cc2)c1C` as the compound, how does the Potency read?
Its Potency is inconclusive [inhibitor, partial curve, poor fit].

For `COc1ccc(C(C)=O)cc1CC(=O)Nc1cccc(S(=O)(=O)N2CCOCC2)c1`, which Potency is on record?
Its Potency is active: 13.1 µM.

With `COc1ccc(C2=NN(C(=O)CSc3ncccn3)C(c3cccc(OC)c3OC)C2)cc1` (configuration not stated) as the compound, how does the Potency read?
The Potency was inconclusive [inhibitor, single point].

With `COC(=O)c1ccc(CNC(=O)c2c3c(nc4ccccc24)CCN(Cc2ccccc2)C3)cc1` as the compound, how does the Potency read?
Its Potency is inconclusive [inhibitor, partial curve, poor fit].

Which “activity change, negative = inhibition” value does the source give for `COc1ccc(C)cc1NC(=O)CCS(=O)(=O)c1ccc2c(c1)oc(=O)n2C` here?
The value was inactive: 4.77%.

For `Cc1ccc(S(=O)(=O)NCc2ccccc2)cc1C(=O)N1CCN(S(=O)(=O)c2ccccc2)CC1`, which Potency is on record?
Its Potency is inconclusive [inhibitor, single point].

With `CC(C)C12CN3CC(C(C)C)(CN(C1)C3c1ccc([N+](=O)[O-])o1)C2=O` (configuration not stated) as the compound, how does the Potency read?
The Potency was active: 2.08 µM.

Which Potency does the source give for `CCn1nc(CC(=O)Nc2ccc(-n3cnnn3)c(OC)c2)c2ccccc2c1=O` here?
The Potency was inconclusive [inhibitor, partial curve, poor fit].

With `COc1ccc(C)cc1COC(=O)c1[nH]c(C)c(C(C)=O)c1C` as the compound, how does the Potency read?
Its Potency is inconclusive [inhibitor, single point].

Which Potency does the source give for `Cc1cnc(C(=O)OCC(=O)c2c(N)n(CC(C)C)c(=O)n(C)c2=O)cn1` here?
Its Potency is inconclusive [inhibitor, single point].

Which “activity change, negative = inhibition” value does the source give for `COc1ccc(NC(=O)CS(=O)CC(=O)Nc2ccc(NC(C)=O)cc2)cc1` (configuration not stated) here?
Its value is inactive: 7.76%.

With `COCc1ccc(-c2c(-c3ccsc3)sc3ccccc23)cc1` as the compound, how does the Potency read?
Its Potency is inconclusive [inhibitor, single point].

With `O=C(CSCCO)Nc1ccc(C2CCCCC2)cc1` as the compound, how does the “activity change, negative = inhibition” value read?
The value was inactive: 79.7%.

For `COc1ccc(O)c(C(=O)c2cnn(S(=O)(=O)c3ccc(C)cc3)c2)c1`, which “activity change, negative = inhibition” value is on record?
The value was inactive: 2.1%.

Which “activity change, negative = inhibition” value does the source give for `CC(C)(C)c1cc(NS(=O)(=O)c2cccs2)no1` here?
The value was inactive: 6.11%.

With `CC1(c2ccc(OC(F)F)cc2)NC(=O)N(CC(=O)Nc2cccc(F)c2)C1=O` (configuration not stated) as the compound, how does the “activity change, negative = inhibition” value read?
Its value is inactive: 3.27%.
